Changes are numbered by the printed parent chain; changes in the protein carry UniProt numbers. This is one part of the list.
T1: RBFOX1 RRM (Homo sapiens, UniProt Q9NWB1 109-208)
T1 sequence: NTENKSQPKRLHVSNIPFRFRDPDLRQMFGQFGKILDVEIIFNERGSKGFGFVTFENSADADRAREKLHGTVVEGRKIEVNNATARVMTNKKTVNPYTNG

B1: UCCCCUU (DNA:RNA)
RNA: GGGAGACCGGAAUUCAGAUUGUCCUCCCCUUUUAAAUCCCGUCGUAGCCACCA
DNA 1: CAATCTGAATTCCGGTCTCCC
DNA 2: TGGTGGCTACGACGGGATT
B2: GCGCCGU (DNA:RNA)
RNA: B1 RNA with U25G, C27G, U30G
DNA 1: CAATCTGAATTCCGGTCTCCC
DNA 2: TGGTGGCTACGACGGGATT
B3: GCCAAUG (DNA:RNA)
RNA: B1 RNA with U25G, C28A, C29A, U31G
DNA 1: CAATCTGAATTCCGGTCTCCC
DNA 2: TGGTGGCTACGACGGGATT
B4: AGUUAGC (DNA:RNA)
RNA: GGGAGACCGGAAUUCAGAUUGUCCAGUUAGCUUAAAUCCCGUCGUAGCCACCA
DNA 1: CAATCTGAATTCCGGTCTCCC
DNA 2: TGGTGGCTACGACGGGATT
B5: CGUGCUA (DNA:RNA)
RNA: B4 RNA with A25C, U28G, A29C, G30U, C31A
DNA 1: CAATCTGAATTCCGGTCTCCC
DNA 2: TGGTGGCTACGACGGGATT
B6: AUAGUUA (DNA:RNA)
RNA: B4 RNA with G26U, U27A, U28G, A29U, G30U, C31A
DNA 1: CAATCTGAATTCCGGTCTCCC
DNA 2: TGGTGGCTACGACGGGATT
B7: GCGGUUG (DNA:RNA)
RNA: B1 RNA with U25G, C27G, C28G, C29U, U31G
DNA 1: CAATCTGAATTCCGGTCTCCC
DNA 2: TGGTGGCTACGACGGGATT
B8: UCUGGAA (DNA:RNA)
RNA: B1 RNA with C27U, C28G, C29G, U30A, U31A
DNA 1: CAATCTGAATTCCGGTCTCCC
DNA 2: TGGTGGCTACGACGGGATT
B9: CCCCGUA (DNA:RNA)
RNA: B1 RNA with U25C, C29G, U31A
DNA 1: CAATCTGAATTCCGGTCTCCC
DNA 2: TGGTGGCTACGACGGGATT
B10: CAAGCGU (DNA:RNA)
RNA: B1 RNA with U25C, C26A, C27A, C28G, U30G
DNA 1: CAATCTGAATTCCGGTCTCCC
DNA 2: TGGTGGCTACGACGGGATT
B11: UUAAUCA (DNA:RNA)
RNA: B1 RNA with C26U, C27A, C28A, C29U, U30C, U31A
DNA 1: CAATCTGAATTCCGGTCTCCC
DNA 2: TGGTGGCTACGACGGGATT
B12: CAUAGUG (DNA:RNA)
RNA: B4 RNA with A25C, G26A, U28A, A29G, G30U, C31G
DNA 1: CAATCTGAATTCCGGTCTCCC
DNA 2: TGGTGGCTACGACGGGATT
B13: UCAGUCA (DNA:RNA)
RNA: B1 RNA with C27A, C28G, C29U, U30C, U31A
DNA 1: CAATCTGAATTCCGGTCTCCC
DNA 2: TGGTGGCTACGACGGGATT
B14: CCCGGUG (DNA:RNA)
RNA: B1 RNA with U25C, C28G, C29G, U31G
DNA 1: CAATCTGAATTCCGGTCTCCC
DNA 2: TGGTGGCTACGACGGGATT
B15: CAACACA (DNA:RNA)
RNA: B4 RNA with A25C, G26A, U27A, U28C, G30C, C31A
DNA 1: CAATCTGAATTCCGGTCTCCC
DNA 2: TGGTGGCTACGACGGGATT
B16: UUUCCCA (DNA:RNA)
RNA: B1 RNA with C26U, C27U, U30C, U31A
DNA 1: CAATCTGAATTCCGGTCTCCC
DNA 2: TGGTGGCTACGACGGGATT
B17: GGCGUGA (DNA:RNA)
RNA: B4 RNA with A25G, U27C, U28G, A29U, C31A
DNA 1: CAATCTGAATTCCGGTCTCCC
DNA 2: TGGTGGCTACGACGGGATT
B18: GGUGCUU (DNA:RNA)
RNA: B1 RNA with U25G, C26G, C27U, C28G
DNA 1: CAATCTGAATTCCGGTCTCCC
DNA 2: TGGTGGCTACGACGGGATT
B19: UAGGAAU (DNA:RNA)
RNA: B1 RNA with C26A, C27G, C28G, C29A, U30A
DNA 1: CAATCTGAATTCCGGTCTCCC
DNA 2: TGGTGGCTACGACGGGATT
B20: GGUAUAU (DNA:RNA)
RNA: B4 RNA with A25G, U28A, A29U, G30A, C31U
DNA 1: CAATCTGAATTCCGGTCTCCC
DNA 2: TGGTGGCTACGACGGGATT

Target: T1, RBFOX1 RRM
Test: EMSA; HiTS-Eq, 1 nM pool, 10 min; buffer printed only for the single-RNA assays: 10 mM Tris pH 7.5, 150 mM NaCl, 3.4 mM EDTA, 0.001% NP-40, 30 C
Conditions: tags: His6 N-terminal (pET28a); label: 5' 32P
How it was run: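 Purified RbFox RRM, wild type or mutant, was incubated for 10 min in 50 µL with 1 nM of a 5′-radiolabelled RNA pool carrying 7 randomized nucleotides, whose flanks were annealed to DNA oligonucleotides, over a series of increasing protein concentrations. Unbound RNA was resolved on 8% native PAGE, cut out, reverse-transcribed, barcoded by PCR and sequenced on an Illumina HiSeq 2500. Relative association constants were derived from changes in read counts for each RNA species versus the control reaction and normalised to the cognate motif.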

In order of falling binding signal:
1. B7  0.0329 KA relative to UGCAUGU
2. B18  0.0178 KA relative to UGCAUGU
3. B2  0.0132 KA relative to UGCAUGU
4. B5  0.0127 KA relative to UGCAUGU
5. B3  0.0122 KA relative to UGCAUGU
6. B17  0.01 KA relative to UGCAUGU
7. B4  0.0092 KA relative to UGCAUGU
8. B12  0.00893 KA relative to UGCAUGU
9. B8  0.00885 KA relative to UGCAUGU
10. B10  0.00823 KA relative to UGCAUGU
11. B19  0.00781 KA relative to UGCAUGU
12. B14  0.00625 KA relative to UGCAUGU
13. B11  0.00562 KA relative to UGCAUGU
14. B16  0.00486 KA relative to UGCAUGU
15. B13  0.00473 KA relative to UGCAUGU
16. B6  0.00305 KA relative to UGCAUGU
17. B9  0.00304 KA relative to UGCAUGU
18. B1  0.0019 KA relative to UGCAUGU
19. B15  0.0017 KA relative to UGCAUGU
20. B20  0.0017 KA relative to UGCAUGU

Source: paper PMC9911399, “Two distinct binding modes provide the RNA-binding protein RbFox with extraordinary sequence specificity”
